{"source": "the supplement of paper PMC8728848", "test_in_all_cases": "glycan array binding signal (z-score within array); higher = stronger binding", "conditions_in_all_cases": "glycan notation: IUPAC condensed, linker removed", "key": {"[1]": {"target": "Neu5Ac(a2-3)Gal(b1-4)Glc", "method_in_brief": "(§1)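 Glycan array data were curated from 3228 arrays in the Consortium for Functional Glycomics database and kept only where the protein sequence was available. Glycan names were converted to IUPAC-condensed notation, and columns mapping to the same glycan were averaged. The binding signal is a within-array Z-score, averaged across arrays of the same protein sequence at different concentrations or buffers and across linkers. Negative Z-scores can be read as non-binding.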"}, "[2]": {"target": "Neu5Ac(a2-3)Gal(b1-4)GlcNAc", "method_in_brief": "as §1"}, "[3]": {"target": "Neu5Ac(a2-3)Gal(b1-4)GlcNAc(b1-2)Man", "method_in_brief": "as §1"}, "[4]": {"target": "Neu5Ac(a2-3)Gal(b1-4)GlcNAc(b1-2)Man(a1-3)[GlcNAc(b1-4)][Neu5Ac(a2-3)Gal(b1-4)GlcNAc(b1-2)Man(a1-6)]Man(b1-4)GlcNAc(b1-4)GlcNAc", "method_in_brief": "as §1"}, "[5]": {"target": "Neu5Ac(a2-3)Gal(b1-4)GlcNAc(b1-2)Man(a1-3)[Neu5Ac(a2-3)Gal(b1-4)GlcNAc(b1-2)Man(a1-6)]Man(b1-4)GlcNAc(b1-4)GlcNAc", "method_in_brief": "as §1"}, "[6]": {"target": "Neu5Ac(a2-3)Gal(b1-4)GlcNAc(b1-2)Man(a1-3)[Neu5Ac(a2-3)Gal(b1-4)GlcNAc(b1-2)Man(a1-6)]Man(b1-4)GlcNAc(b1-4)[Fuc(a1-6)]GlcNAc", "method_in_brief": "as §1"}, "[7]": {"target": "Neu5Ac(a2-3)Gal(b1-4)GlcNAc(b1-2)Man(a1-3)[Neu5Ac(a2-6)Gal(b1-4)GlcNAc(b1-2)Man(a1-6)]Man(b1-4)GlcNAc(b1-4)GlcNAc", "method_in_brief": "as §1"}, "[8]": {"target": "Neu5Ac(a2-3)Gal(b1-4)GlcNAc(b1-2)[Neu5Ac(a2-3)Gal(b1-4)GlcNAc(b1-4)]Man(a1-3)[GlcNAc(b1-4)][Neu5Ac(a2-3)Gal(b1-4)GlcNAc(b1-2)[Neu5Ac(a2-3)Gal(b1-4)GlcNAc(b1-6)]Man(a1-6)]Man(b1-4)GlcNAc(b1-4)GlcNAc", "method_in_brief": "as §1"}, "[9]": {"target": "Neu5Ac(a2-3)Gal(b1-4)GlcNAc(b1-2)[Neu5Ac(a2-3)Gal(b1-4)GlcNAc(b1-4)]Man(a1-3)[GlcNAc(b1-4)][Neu5Ac(a2-3)Gal(b1-4)GlcNAc(b1-4)Man(a1-6)]Man(b1-4)GlcNAc(b1-4)GlcNAc", "method_in_brief": "as §1"}, "[10]": {"target": "Neu5Ac(a2-3)Gal(b1-4)GlcNAc(b1-2)[Neu5Ac(a2-3)Gal(b1-4)GlcNAc(b1-6)]Man(a1-6)[Neu5Ac(a2-3)Gal(b1-4)GlcNAc(b1-2)Man(a1-3)][GlcNAc(b1-4)]Man(b1-4)GlcNAc(b1-4)GlcNAc", "method_in_brief": "as §1"}, "[11]": {"target": "Neu5Ac(a2-3)Gal(b1-4)GlcNAc(b1-3)Gal", "method_in_brief": "as §1"}, "[12]": {"target": "Neu5Ac(a2-3)Gal(b1-4)GlcNAc(b1-3)Gal(b1-3)GlcNAc", "method_in_brief": "as §1"}, "[13]": {"target": "Neu5Ac(a2-3)Gal(b1-4)GlcNAc(b1-3)Gal(b1-4)GlcNAc", "method_in_brief": "as §1"}, "[14]": {"target": "Neu5Ac(a2-3)Gal(b1-4)GlcNAc(b1-3)Gal(b1-4)GlcNAc(b1-2)Man(a1-3)[Neu5Ac(a2-3)Gal(b1-4)GlcNAc(b1-3)Gal(b1-4)GlcNAc(b1-2)Man(a1-6)]Man(b1-4)GlcNAc(b1-4)GlcNAc", "method_in_brief": "as §1"}, "[15]": {"target": "Neu5Ac(a2-3)Gal(b1-4)GlcNAc(b1-3)Gal(b1-4)GlcNAc(b1-3)Gal(b1-4)GlcNAc", "method_in_brief": "as §1"}, "[16]": {"target": "Neu5Ac(a2-3)Gal(b1-4)GlcNAc(b1-3)Gal(b1-4)GlcNAc(b1-3)Gal(b1-4)GlcNAc(b1-2)Man(a1-3)[Neu5Ac(a2-3)Gal(b1-4)GlcNAc(b1-3)Gal(b1-4)GlcNAc(b1-3)Gal(b1-4)GlcNAc(b1-2)Man(a1-6)]GalNAc", "method_in_brief": "as §1"}, "[17]": {"target": "Neu5Ac(a2-3)Gal(b1-4)GlcNAc(b1-3)Gal(b1-4)GlcNAc(b1-3)GalNAc", "method_in_brief": "as §1"}, "[18]": {"target": "Neu5Ac(a2-3)Gal(b1-4)GlcNAc(b1-3)Gal(b1-4)GlcNAc(b1-3)[Neu5Ac(a2-3)Gal(b1-4)GlcNAc(b1-3)Gal(b1-4)GlcNAc(b1-6)]GalNAc", "method_in_brief": "as §1"}, "[19]": {"target": "Neu5Ac(a2-3)Gal(b1-4)GlcNAc(b1-3)Gal(b1-4)GlcNAc(b1-6)[Gal(b1-3)]GalNAc", "method_in_brief": "as §1"}, "[20]": {"target": "Neu5Ac(a2-3)Gal(b1-4)GlcNAc(b1-3)Gal(b1-4)[Fuc(a1-3)]GlcNAc", "method_in_brief": "as §1"}, "[21]": {"target": "Neu5Ac(a2-3)Gal(b1-4)GlcNAc(b1-3)GalNAc", "method_in_brief": "as §1"}, "[22]": {"target": "Neu5Ac(a2-3)Gal(b1-4)GlcNAc(b1-3)[Neu5Ac(a2-3)Gal(b1-4)GlcNAc(b1-6)]GalNAc", "method_in_brief": "as §1"}, "[23]": {"target": "Neu5Ac(a2-3)Gal(b1-4)GlcNAc(b1-6)GalNAc", "method_in_brief": "as §1"}, "[24]": {"target": "Neu5Ac(a2-3)Gal(b1-4)GlcNAc(b1-6)[Gal(b1-3)]GalNAc", "method_in_brief": "as §1"}, "[25]": {"target": "Neu5Ac(a2-3)Gal(b1-4)GlcNAc(b1-6)[Neu5Ac(a2-3)Gal(b1-3)]GalNAc", "method_in_brief": "as §1"}, "[26]": {"target": "Neu5Ac(a2-3)Gal(b1-4)GlcNAc6S", "method_in_brief": "as §1"}, "[27]": {"target": "Neu5Ac(a2-3)Gal(b1-4)[Fuc(a1-3)]GlcNAc", "method_in_brief": "as §1"}, "[28]": {"target": "Neu5Ac(a2-3)Gal(b1-4)[Fuc(a1-3)]GlcNAc(b1-2)Man", "method_in_brief": "as §1"}, "[29]": {"target": "Neu5Ac(a2-3)Gal(b1-4)[Fuc(a1-3)]GlcNAc(b1-3)Gal", "method_in_brief": "as §1"}, "[30]": {"target": "Neu5Ac(a2-3)Gal(b1-4)[Fuc(a1-3)]GlcNAc(b1-3)Gal(b1-4)GlcNAc", "method_in_brief": "as §1"}, "[31]": {"target": "Neu5Ac(a2-3)Gal(b1-4)[Fuc(a1-3)]GlcNAc(b1-3)Gal(b1-4)[Fuc(a1-3)]GlcNAc(b1-3)Gal(b1-4)[Fuc(a1-3)]GlcNAc", "method_in_brief": "as §1"}, "[32]": {"target": "Neu5Ac(a2-3)Gal(b1-4)[Fuc(a1-3)]GlcNAc(b1-3)GalNAc", "method_in_brief": "as §1"}, "[33]": {"target": "Neu5Ac(a2-3)Gal(b1-4)[Fuc(a1-3)]GlcNAc(b1-6)[Gal(b1-3)]GalNAc", "method_in_brief": "as §1"}, "[34]": {"target": "Neu5Ac(a2-3)Gal(b1-4)[Fuc(a1-3)]GlcNAc(b1-6)[Neu5Ac(a2-3)Gal(b1-3)]GalNAc", "method_in_brief": "as §1"}, "[35]": {"target": "Neu5Ac(a2-3)Gal(b1-4)[Fuc(a1-3)]GlcNAc6S", "method_in_brief": "as §1"}, "[36]": {"target": "Neu5Ac(a2-3)Gal6S(b1-4)GlcNAc", "method_in_brief": "as §1"}, "[37]": {"target": "Neu5Ac(a2-3)Gal6S(b1-4)[Fuc(a1-3)]GlcNAc", "method_in_brief": "as §1"}, "[38]": {"target": "Neu5Ac(a2-3)GalNAc", "method_in_brief": "as §1"}}, "note": "The list shows a part of the results."}
{"binder": "PLU (Photorhabdus luminiscence) (protein) HHHHHHENLYFQSSIVFASIDPRSNPLQTSSQNYVDIPGLKLDVSKYSNSPCLTALITLNIPTPYASGNNFPGGNFAIVTDQGEQLAYGGFTYSSKIPENSGRMPFTLVARYSLASNVSTIKAQWSNIRGSTVHIDSYASISAVIQCNQLV", "values": [{"measurement": "glycan array binding signal (z-score)", "setting": "[1]", "value": -0.23}, {"measurement": "glycan array binding signal (z-score)", "setting": "[2]", "value": -0.278}, {"measurement": "glycan array binding signal (z-score)", "setting": "[3]", "value": -0.192}, {"measurement": "glycan array binding signal (z-score)", "setting": "[4]", "value": -0.251}, {"measurement": "glycan array binding signal (z-score)", "setting": "[5]", "value": -0.219}, {"measurement": "glycan array binding signal (z-score)", "setting": "[6]", "value": -0.246}, {"measurement": "glycan array binding signal (z-score)", "setting": "[7]", "value": -0.216}, {"measurement": "glycan array binding signal (z-score)", "setting": "[8]", "value": -0.201}, {"measurement": "glycan array binding signal (z-score)", "setting": "[9]", "value": -0.348}, {"measurement": "glycan array binding signal (z-score)", "setting": "[10]", "value": -0.271}, {"measurement": "glycan array binding signal (z-score)", "setting": "[11]", "value": -0.244}, {"measurement": "glycan array binding signal (z-score)", "setting": "[12]", "value": -0.324}, {"measurement": "glycan array binding signal (z-score)", "setting": "[13]", "value": -0.256}, {"measurement": "glycan array binding signal (z-score)", "setting": "[14]", "value": -0.175}, {"measurement": "glycan array binding signal (z-score)", "setting": "[15]", "value": -0.272}, {"measurement": "glycan array binding signal (z-score)", "setting": "[16]", "value": -0.168}, {"measurement": "glycan array binding signal (z-score)", "setting": "[17]", "value": -0.289}, {"measurement": "glycan array binding signal (z-score)", "setting": "[18]", "value": -0.263}, {"measurement": "glycan array binding signal (z-score)", "setting": "[19]", "value": -0.228}, {"measurement": "glycan array binding signal (z-score)", "setting": "[20]", "value": -0.267}, {"measurement": "glycan array binding signal (z-score)", "setting": "[21]", "value": -0.224}, {"measurement": "glycan array binding signal (z-score)", "setting": "[22]", "value": -0.363}, {"measurement": "glycan array binding signal (z-score)", "setting": "[23]", "value": -0.289}, {"measurement": "glycan array binding signal (z-score)", "setting": "[24]", "value": -0.144}, {"measurement": "glycan array binding signal (z-score)", "setting": "[25]", "value": -0.34}, {"measurement": "glycan array binding signal (z-score)", "setting": "[26]", "value": -0.362}, {"measurement": "glycan array binding signal (z-score)", "setting": "[27]", "value": -0.304}, {"measurement": "glycan array binding signal (z-score)", "setting": "[28]", "value": -0.237}, {"measurement": "glycan array binding signal (z-score)", "setting": "[29]", "value": -0.325}, {"measurement": "glycan array binding signal (z-score)", "setting": "[30]", "value": -0.205}, {"measurement": "glycan array binding signal (z-score)", "setting": "[31]", "value": -0.382}, {"measurement": "glycan array binding signal (z-score)", "setting": "[32]", "value": -0.087}, {"measurement": "glycan array binding signal (z-score)", "setting": "[33]", "value": -0.092}, {"measurement": "glycan array binding signal (z-score)", "setting": "[34]", "value": -0.178}, {"measurement": "glycan array binding signal (z-score)", "setting": "[35]", "value": -0.225}, {"measurement": "glycan array binding signal (z-score)", "setting": "[36]", "value": -0.282}, {"measurement": "glycan array binding signal (z-score)", "setting": "[37]", "value": -0.369}, {"measurement": "glycan array binding signal (z-score)", "setting": "[38]", "value": -0.318}]}
